The campaign covered roughly 410,000 compounds. About 7,200 (1.8%) were called active. This list was built around the results that the source calls inconclusive (neither active nor inactive); the mix of calls is not that of the screen. Calls come from the whole dose curve; as a rule, active = well fitted activation curve with a large enough effect; inconclusive = small, poorly fitted or top-dose-only effect, or another doubt; inactive = no such curve, though single readings can be large or run the other way. No potency is given beside an inconclusive call; the fits are too rough.
Experiment: qHTS of TDP-43 Inhibitors; note: nearly all actives have a fitted effect of over 50% in size
Settings: TDP-43 expressing yeast growth rescue, BacTiter-Glo, 24 h; series mostly up to 46.1 µM
Summary of the method: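 Luminescence from BacTiter-Glo reports growth of TDP-43-expressing yeast after 24 hr at 30 deg C with compound. Cells were raffinose-pregrown to mid-log, then seeded in galactose medium at OD600=0.02.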
Potency is the fitted concentration of half-maximal effect; tags give direction and shape of the fitted curve.

Structure (SMILES)	Potency
CCOC(=O)C1CCCN(S(=O)(=O)c2cc(-c3cc(C)no3)ccc2C)C1 (centres undefined)	active: 35.5 µM
O=C(O)c1ccc(-c2nc(-c3cccc(C(F)(F)F)c3)cs2)cc1	inactive
N/C(=N\OC(=O)Cc1ccc(-c2ccccc2)cc1)c1cccnc1	inconclusive [activator, single point]
COc1cccc(CNC(=O)c2ccc(CS(=O)Cc3ccc(Cl)cc3)o2)c1 (centres undefined)	inactive
O=C(Oc1ccc2c(c1)OCO2)c1cc2c(s1)CCC2	inconclusive [activator, full curve]
COc1ccc(N2CCN(C(=O)c3cc(-c4ccc(F)cc4)[nH]c3C)CC2)cc1	inconclusive [activator, single point]
O=C(Nc1cc(Cl)cc(Cl)c1)C1CCCC1	inconclusive [activator, partial curve]
Cc1ccc(-c2nnc3n2N=C(c2ccccc2)CS3)cc1	inactive
Cc1nn(-c2ccccc2)c(Cl)c1/C=N/NS(=O)(=O)c1ccc(Br)cc1	inconclusive [activator, single point]
C/C(=N\NC(=O)c1cccc(Br)c1)c1ccccn1	inconclusive [activator, single point]
O=C(Nc1ccc([N+](=O)[O-])cc1)C1COc2ccccc2O1 (centres undefined)	inconclusive [activator, single point]
CCCCCCCC(=O)Nc1ccc(C(=O)N/N=C/c2cccc([N+](=O)[O-])c2)cc1	inactive
Cc1ccc(CNC(=O)Cn2cc(C(=O)c3ccc(Cl)cc3)c(=O)c3ccc(C)nc32)cc1	inactive
CCN(CC)C(=O)C1=C(C)N(Cc2ccc(C(C)(C)C)cc2)C(=O)C(CC(=O)NCc2cccc3ccccc23)C1 (centres undefined)	inconclusive [activator, single point]
COc1ccc(C(C)(O)c2nc(-c3ccc4c(c3)OCO4)cs2)cc1 (centres undefined)	inconclusive [activator, single point]
COc1cccc(CN(C)C(=O)COc2ccc(C(=O)c3ccc(Cl)cc3)cc2)c1OC	inconclusive [activator, single point]
O=C(c1cc(-c2cccs2)on1)N1CCN(c2ccc(F)cc2)CC1	inactive
Cc1ccccc1CN(c1ccc(C(=O)N2CCc3ccccc3C2)cc1)S(C)(=O)=O	inconclusive [activator, single point]
CC(C)(O)CCc1c(-c2ccc(O)cc2O)oc2c3c(cc(O)c2c1=O)OC(C)(C)C=C3	active: 12.6 µM

— PubChem BioAssay AID652104 (National Center for Advancing Translational Sciences (NCATS), 2013)
